Assay results published in patent publication US20250376539A1 (KIRA PHARMACEUTICALS SUZHOU, published 2025).

Key:
[1] = biological target: T1, recombinant human complement C2 (NP_000054.2), C-terminal 6His-tag, made in house (CHO cell expression) (human, UniProt P06681 21-752); assay: binding kinetics, neutral pH (BLI presumed)
T1 construct: a linker before the tag is not described; also called human C2; Human C2
T1 sequence: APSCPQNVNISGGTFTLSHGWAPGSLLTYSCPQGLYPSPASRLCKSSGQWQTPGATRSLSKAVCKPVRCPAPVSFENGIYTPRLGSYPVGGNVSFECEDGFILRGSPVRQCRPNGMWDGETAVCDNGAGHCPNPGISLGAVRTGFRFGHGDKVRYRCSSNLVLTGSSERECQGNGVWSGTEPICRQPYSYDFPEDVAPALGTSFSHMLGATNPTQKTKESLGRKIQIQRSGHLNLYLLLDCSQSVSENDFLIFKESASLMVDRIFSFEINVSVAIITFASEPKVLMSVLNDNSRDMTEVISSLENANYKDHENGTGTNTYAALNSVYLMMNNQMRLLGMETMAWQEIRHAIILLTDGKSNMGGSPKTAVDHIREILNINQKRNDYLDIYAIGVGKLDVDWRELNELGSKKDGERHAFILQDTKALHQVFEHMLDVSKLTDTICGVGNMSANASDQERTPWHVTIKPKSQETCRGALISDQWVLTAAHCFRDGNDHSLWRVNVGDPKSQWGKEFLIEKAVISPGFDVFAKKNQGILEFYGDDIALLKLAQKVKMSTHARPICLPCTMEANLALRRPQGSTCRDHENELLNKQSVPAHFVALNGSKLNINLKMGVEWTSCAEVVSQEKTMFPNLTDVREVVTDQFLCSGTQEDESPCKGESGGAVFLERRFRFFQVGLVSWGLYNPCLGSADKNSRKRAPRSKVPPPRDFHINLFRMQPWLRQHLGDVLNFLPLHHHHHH

[2] = biological target: T2, human complement C2 in normal human serum (human, UniProt P06681 21-752); assay: cell-based or functional assay
T2 sequence: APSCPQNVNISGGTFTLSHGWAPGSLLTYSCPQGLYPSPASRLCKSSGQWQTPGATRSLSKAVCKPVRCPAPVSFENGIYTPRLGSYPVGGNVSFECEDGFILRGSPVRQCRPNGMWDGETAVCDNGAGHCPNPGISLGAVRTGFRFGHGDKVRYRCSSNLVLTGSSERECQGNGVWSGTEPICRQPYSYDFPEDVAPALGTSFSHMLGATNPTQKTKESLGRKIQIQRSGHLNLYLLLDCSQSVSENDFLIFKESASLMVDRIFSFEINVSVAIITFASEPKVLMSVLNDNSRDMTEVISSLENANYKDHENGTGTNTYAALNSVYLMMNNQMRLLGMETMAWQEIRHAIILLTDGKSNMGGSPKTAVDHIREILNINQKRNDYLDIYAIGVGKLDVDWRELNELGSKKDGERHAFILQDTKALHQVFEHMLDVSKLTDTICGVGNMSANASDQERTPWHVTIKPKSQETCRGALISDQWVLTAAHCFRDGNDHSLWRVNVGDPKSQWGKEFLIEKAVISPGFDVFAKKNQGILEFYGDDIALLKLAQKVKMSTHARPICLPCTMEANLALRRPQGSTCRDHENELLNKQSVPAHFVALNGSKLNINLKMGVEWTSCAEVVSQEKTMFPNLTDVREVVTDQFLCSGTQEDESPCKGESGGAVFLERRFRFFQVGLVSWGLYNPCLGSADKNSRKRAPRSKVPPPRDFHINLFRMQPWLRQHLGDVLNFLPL

[3] = biological target: T3, recombinant cynomolgus (cyno) complement C2 (XP_005553508.1), C-terminal 6His-tag, made in house (CHO cell … (cynomolgus monkey (Macaca fascicularis), UniProt P06681 21-752 (human entry))); assay: BLI (Gator), antibody on probe; 600 s association at pH 7.4, 600 s dissociation at pH 7.4
T3 construct: also called cyno C2; Cyno C2
T3 chain: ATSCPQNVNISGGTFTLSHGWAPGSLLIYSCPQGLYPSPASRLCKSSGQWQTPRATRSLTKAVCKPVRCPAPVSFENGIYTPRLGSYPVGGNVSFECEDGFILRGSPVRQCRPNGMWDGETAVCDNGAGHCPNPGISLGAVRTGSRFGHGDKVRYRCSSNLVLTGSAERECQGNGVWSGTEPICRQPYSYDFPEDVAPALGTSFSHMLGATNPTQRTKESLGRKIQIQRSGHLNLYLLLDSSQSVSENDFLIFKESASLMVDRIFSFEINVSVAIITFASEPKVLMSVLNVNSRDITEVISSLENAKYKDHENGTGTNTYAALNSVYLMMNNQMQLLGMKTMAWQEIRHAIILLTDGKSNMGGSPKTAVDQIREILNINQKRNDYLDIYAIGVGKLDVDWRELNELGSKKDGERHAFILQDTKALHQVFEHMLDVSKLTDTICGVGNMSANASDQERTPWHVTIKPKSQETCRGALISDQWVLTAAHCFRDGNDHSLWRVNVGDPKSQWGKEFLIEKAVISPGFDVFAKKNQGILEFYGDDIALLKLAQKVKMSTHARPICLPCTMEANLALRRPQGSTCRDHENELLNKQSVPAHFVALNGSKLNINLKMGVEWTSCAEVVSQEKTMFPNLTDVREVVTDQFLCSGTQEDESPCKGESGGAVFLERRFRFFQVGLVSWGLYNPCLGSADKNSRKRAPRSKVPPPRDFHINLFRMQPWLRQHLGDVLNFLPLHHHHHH
Method: (§1) The histidine mutant constructs in Table 4 were tested for their pH-dependent dissociation from human C2. Probe-immobilized anti-C2 antibodies were incubated with C2 at pH 7.4 for 600s, followed by a 600s dissociation period in K Buffer at pH 7.4 or pH 5.8. The data were processed and analyzed by the Gator evaluation software.
(§2) Non-fusion mAb were used for comparison.

[4] = biological target: T1, recombinant human complement C2 …; assay: as above
Method: as §1, §2

Kd [1]: 6.02 pM
koff [1]: 1.17e-06 s⁻¹
kon [1]: 195000 M⁻¹ s⁻¹
IC50, Mannan-C3b ELISA (lectin pathway), 1% human serum [2]: 1.31 nM
IC50, Mannan-C3b ELISA (lectin pathway), 50% human serum [2]: 141 nM
IC50, inhibition of sheep RBC lysis, 1% human serum [2]: 0.51 nM
IC50, inhibition of sheep RBC lysis, 50% human serum [2]: 30.5 nM
Dissociation (%) pH 7.4 [3]: 1.4%
Dissociation (%) pH 7.4 [4]: 1.71%
B1: 69.44FH (Factor H 1-5 fusion with 69.44; FH1-5 fused to the heavy chain C-terminus) (other)
heavy: QVQLVQSGAEVKKPGASVKVSCKASGYSFTTYYMYWVRQAPGQGLEWMGIITPSGGSTTYAQKFQDRVTMTRDASTTTVYMELSSLRSEDTAVYYCARGYEGSYGFDHWGQGTLVTVSSASTKGPSVFPLAPCSRSTSESTAALGCLVKDYFPEPVTVSWNSGALTSGVHTFPAVLQSSGLYSLSSVVTVPSSSLGTKTYTCNVDHKPSNTKVDKRVESKYGPP[human IgG4 Fc with S228P M428L N434A (EU numbers) not shown]EDCNELPPRRNTEILTGSWSDQTYPEGTQAIYKCRPGYRSLGNIIMVCRKGEWVALNPLRKCQKRPCGHPGDTPFGTFTLTGGNVFEYGVKAVYTCNEGYQLLGEINYRECDTDGWTNDIPICEVVKCLPVTAPENGKIVSSAMEPDREYHFGQAVRFVCNSGYKIEGDEEMHCSDDGFWSKEKPKCVEISCKSPDVINGSPISQKIIYKENERFQYKCNMGYEYSERGDAVCTESGWRPLPSCEEKSCDNPYIPNGDYSPLRIKHRTGDEITYQCRNGFYPATRGNTAKCTSTGWIPAPRCTLKP
light: SYELTQPPSVSLSPGQTASITCSGDKLGNKYTCWYQQKPGQSPVLVIYQDNKRPSGIPERFSGSNSGNTATLTISGTQAMDEADYYCQTWDSSTAVFGGGTKLTVLGQPKAAPSVTLFPPSSEELQANKATLVCLISDFYPGAVTVAWKADSSPVKAGVETTTPSKQSNNKYAASSYLSLTPEQWKSHRSYSCQVTHEGSTVEKTVAPTECS
notes: Antibody-factor H fusion protein
